This is an account of results in article PMC7819943, “Rice protein-binding microarrays: a tool to detect cis-acting elements near promoter regions in rice”.

The list shows a part of the results.

This experiment addresses T1, OsWOX13 (Oryza sativa, UniProt Q5QMM3 1-267).
T1 sequence: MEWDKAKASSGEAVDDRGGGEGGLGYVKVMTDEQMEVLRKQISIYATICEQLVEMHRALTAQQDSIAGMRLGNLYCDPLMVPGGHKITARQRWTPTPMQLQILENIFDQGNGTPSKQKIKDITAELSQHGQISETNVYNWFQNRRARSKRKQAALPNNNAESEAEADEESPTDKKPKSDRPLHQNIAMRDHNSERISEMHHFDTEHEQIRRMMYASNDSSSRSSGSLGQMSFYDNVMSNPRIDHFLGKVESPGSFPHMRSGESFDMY
The experiment in a line: protein-binding microarray (RPBM); PBS, 2% BSA, 51.3 ng/ul salmon testes DNA, 50 uM zinc acetate, 200 nM TF, 25 C, 1 h; high values mean tight binding. The settings on record: protein: recombinant; tags: N-terminal polyhistidine and DsRed monomer fusion (pET32a); label: CyDye5-dUTP incorporated in the synthesized complementary strand; 3' TTTTT single-stranded linker to array surface; dsDNA, one strand shown. In a few lines:
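A custom Agilent array was converted to double-stranded form by primer extension with Cy5-dUTP and blocked with 2% BSA. Protein at 200 nM in PBS with 2% BSA, salmon testes DNA and 50 µM zinc acetate was applied for 1 h at 25 °C, followed by washing. The proteins were polyhistidine–DsRed N-terminal fusions of transcription factors, expressed in E. coli BL21-CodonPlus and Ni–NTA-purified. The binding signal is per-feature fluorescence intensity (arbitrary units) from an Axon 4000B scanner.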
Consider “CGATGATATAATTAGCATGAGGACATAGAATTCTAATTAACGGAGTCACCTAGTGCAG”, for which the binding signal was 8620 fluorescence intensity (a.u.).

Consider “ATCTGATTTCCCTACAGAAAGACTGCGAGTGCAGTGGCAGCGGAGTCACCTAGTGCAG”, for which the binding signal is 5010 fluorescence intensity (a.u.).

Turning to “AACATCACAACCACACTTATGATTGAATTTGAAATTCTGACGGAGTCACCTAGTGCAG”, the binding signal is 9820 fluorescence intensity (a.u.).

As for “CGGTTTTGTAAATTGAGGGGTGCCATATATCTGGTTTCATCGGAGTCACCTAGTGCAG”, the binding signal is 5000 fluorescence intensity (a.u.).

Turning to “TGGGGTAAGTATGATTGAGTGTTACATTTAACTATTTGCCCGGAGTCACCTAGTGCAG”, the binding signal is 17600 fluorescence intensity (a.u.).

For the sequence “TAATTAATTAATTAATTTGGTCAAGCGGTTAATCACCTGGCGGAGTCACCTAGTGCAG”, the binding signal is 47400 fluorescence intensity (a.u.).

For “ATATTAAATTTATTTACCATCATTGATTAGATAATTCGCGCGGAGTCACCTAGTGCAG”, the binding signal is 37300 fluorescence intensity (a.u.).

As to “TCATTCCAATTTTAACTAAACTTTTAATTTTGGTGTGAACCGGAGTCACCTAGTGCAG”, the binding signal was 4780 fluorescence intensity (a.u.).

Consider “GGTCTAACTAATTATCACCCCTACCTACAAAATTACGGTCCGGAGTCACCTAGTGCAG”, for which the binding signal is 18600 fluorescence intensity (a.u.).

Regarding “AGGAATAATTGTATTAAGATTTAATAAATTATGATATTTTCGGAGTCACCTAGTGCAG”, the binding signal was 12200 fluorescence intensity (a.u.).

Consider “AGCAATTAAGCCTCGTGTTGTGATTGGTTGGCTGGTTGGTCGGAGTCACCTAGTGCAG”, for which the binding signal is 9970 fluorescence intensity (a.u.).

Turning to “GCAGAATGGTTGATTGTCTCCTATAAATAGGAGCCCAGCTCGGAGTCACCTAGTGCAG”, the binding signal was 22800 fluorescence intensity (a.u.).

On to “AAATTATAATTGAGCTGCCTCATCAATGACGACGGAAATCCGGAGTCACCTAGTGCAG”, for which the binding signal is 9180 fluorescence intensity (a.u.).

On to “TGCAACACAAATTATCTAAGCGACGCTGTTTAGCATATCCCGGAGTCACCTAGTGCAG”, for which the binding signal is 4040 fluorescence intensity (a.u.).

For the sequence “TTTTAATCAATGAGATTATTCCAAGTAGCCAAGTAGGTAACGGAGTCACCTAGTGCAG”, the binding signal is 4720 fluorescence intensity (a.u.).

On to “ATAATTAATATATGTTGATACATGTATAGACTCTTCTAATCGGAGTCACCTAGTGCAG”, for which the binding signal is 10700 fluorescence intensity (a.u.).

Consider “CACTAATTAATCTATTGCTAGTACAAGCTAGTACTTGACTCGGAGTCACCTAGTGCAG”, for which the binding signal is 23400 fluorescence intensity (a.u.).

Take “ACTCTTAGACTGTCAATTGGTCGACATCTACGCTTATCATCGGAGTCACCTAGTGCAG”: the binding signal is 9430 fluorescence intensity (a.u.).

“TCCAACGTTTTGGTTTCAATCAGGAGATGACCCGTCAGGACGGAGTCACCTAGTGCAG”: the binding signal is 5530 fluorescence intensity (a.u.).

On to “ACCCCAATCACTGACGCACCGGGCCCACGTAGCTCGACCCCGGAGTCACCTAGTGCAG”, for which the binding signal is 20600 fluorescence intensity (a.u.).

On to “TATTTTATAGTTGATTAAACTGATGTATTGTTGTTGTCACCGGAGTCACCTAGTGCAG”, for which the binding signal was 6240 fluorescence intensity (a.u.).

With “AGGGAGGCTATTCAATCAGGAGCAAGTATTGAGGGAGGCACGGAGTCACCTAGTGCAG”, the binding signal was 4200 fluorescence intensity (a.u.).

Regarding “AAAATTGTGCATTAATTAGTATAGTCATTTGTCCTCTCAACGGAGTCACCTAGTGCAG”, the binding signal was 32700 fluorescence intensity (a.u.).

On to “GCAATATATAATTTGGTCTTGAATGGCACATGATTCTTCTCGGAGTCACCTAGTGCAG”, for which the binding signal is 5780 fluorescence intensity (a.u.).

For “TTCCTGATGTCAATTAACTGCAAAACTGTAGCGCAGAGCACGGAGTCACCTAGTGCAG”, the binding signal is 39200 fluorescence intensity (a.u.).

In the case of “AATAATTAAATTTGATATAATAAATTAATATGTGATATGTCGGAGTCACCTAGTGCAG”, the binding signal was 35700 fluorescence intensity (a.u.).

Take “CCAAAATTTGGCTTTAACTAAAACATATCCTAGCACCACCCGGAGTCACCTAGTGCAG”: the binding signal was 6420 fluorescence intensity (a.u.).

Consider “CTTGAGATAACAGTTATATAACTGTTTGCCAATTTCAAATCGGAGTCACCTAGTGCAG”, for which the binding signal was 4100 fluorescence intensity (a.u.).

Consider “CACCGTCCATAATTTATTTTAAATTCGCATTTAATTCGCTCGGAGTCACCTAGTGCAG”, for which the binding signal is 12800 fluorescence intensity (a.u.).

As to “ATTGTAACTGACAAACACTTTATCATTGTTTTCAGCCAAACGGAGTCACCTAGTGCAG”, the binding signal is 7490 fluorescence intensity (a.u.).

Turning to “TATAGTGCAGATTTTGAAATTGATGAGTGCACGTTTGGGCCGGAGTCACCTAGTGCAG”, the binding signal is 6560 fluorescence intensity (a.u.).

With “TTTGAGTGATTTTGTGCATTTGAAACCATGGTGCCCGGGCCGGAGTCACCTAGTGCAG”, the binding signal is 19800 fluorescence intensity (a.u.).

Turning to “AGCTAATGAGCTAAACGCCCAGTCATTCAACACCGACCATCGGAGTCACCTAGTGCAG”, the binding signal was 3670 fluorescence intensity (a.u.).

As for “AGATAATCATTGGATGCATGTCGGCAACCAACCATGCCTACGGAGTCACCTAGTGCAG”, the binding signal was 7050 fluorescence intensity (a.u.).

As to “TTTCAAATCTCAAATTGAAAGTTTTCAAAATTTTCAAATCCGGAGTCACCTAGTGCAG”, the binding signal was 3760 fluorescence intensity (a.u.).

For “CCTATTCATAATTGATCATGTTAAAAGTTGTTTTCTGCCACGGAGTCACCTAGTGCAG”, the binding signal is 32300 fluorescence intensity (a.u.).

In the case of “ACATATGCTAATGACGGATTAATTGGGCTCAAAAGATTCGCGGAGTCACCTAGTGCAG”, the binding signal is 9450 fluorescence intensity (a.u.).

“ACAATAATCAACTTAATGATATGGAGATAGAATATTCCCACGGAGTCACCTAGTGCAG”: the binding signal is 13700 fluorescence intensity (a.u.).

As for “GGAAATTGGCCTGAAACATAAAAGTCTTGAACCGTTTGAGCGGAGTCACCTAGTGCAG”, the binding signal was 5900 fluorescence intensity (a.u.).

In the case of “CTTAATGTTTTAATCTATCTATATTAGTCCTTTAAGTTTTCGGAGTCACCTAGTGCAG”, the binding signal was 3890 fluorescence intensity (a.u.).

On to “CTATGATTTGACAATGTATTTGCTACAGAAAACACATGCTCGGAGTCACCTAGTGCAG”, for which the binding signal was 42100 fluorescence intensity (a.u.).

For the sequence “GCTGCTACTGAGCAGATTGATTTGTTTCTGAATCTAGGAACGGAGTCACCTAGTGCAG”, the binding signal was 5670 fluorescence intensity (a.u.).
